Experimental data from the supplement of paper PMC10126150.
Values marked as one replicate rest on one cluster of the flow cell; about a third of the high ones do not repeat.

Test system: ATP
Assay: switch fluorescence ratio, 500 uM ATP over buffer (Cy3 cluster intensity, sum of 5 cycles each) (fold (ratio)); higher = stronger signal-on switching upon ATP binding; sequences stand for … in TCGTCGGCAGCGTCAGATGTGTATAAGAGACAGTTTTTTTTTTTTTTTTTTTTTTTTT…TC
Details: aptamer strand: ATP DNA aptamer (quencher-CACCTGGGGGAGTATTGCGGAGGAAGG + anchor), 100 nM annealed; ATP concentration: 500 uM; one replicate
Summary of the method: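 Exposure to 500 uM ATP lasted 15 min at 22 °C before imaging, and a selection-buffer image was taken beforehand, for Cy3-labelled switching-strand clusters on a modified Illumina MiSeq flow-cell annealed to 100 nM quencher-labelled ATP aptamer. Five buffer/ATP cycles were run with NaOH stripping and re-annealing between them. The fluorescence ratio per cluster is summed target-cycle over summed buffer-cycle Cy3 intensity, averaged per switch-domain sequence. Clusters outside 100-1000 RFU were excluded.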

| Sequence | switch fluorescence ratio |
| --- | --- |
| CAGCCTATGT | 0.937 |
| GTGGTCTTTA | 0.966 |
| GGATATTTTG | 0.973 |
| CGTATGCGAG | 0.947 |
| CGTCAGAGTT | 0.982 |
| GGTTTTAGC | 0.995 |
| AACGTGACAC | 1.22 |
| CGCCAAATAT | 1.73 |
| GTCATCGCAT | 1.18 |
| AATCCTTCTT | 1.11 |
| AACGATGTAT | 0.942 |
| CGGTTACTCG | 1.03 |
| AGTTAGTCTA | 1.01 |
| TGGTGTACTC | 1.01 |
| GAGACCGTTT | 0.997 |
| CATCACGCTT | 1.72 |
| GCAAGGTCGG | 0.995 |
| CGGTCATACG | 0.999 |
| GGGCTTGAAC | 0.967 |
| AAGCCGTCTA | 1.01 |
| TTCCACAAGT | 1.01 |
| TATTGTAGGC | 1.01 |

| Sequence | switch fluorescence ratio |
| --- | --- |
| CAGAAGTAGC | 1.03 |
| GTCCATTAAG | 1.02 |
| TGCGTAAATT | 1 |
| GTTGGGCCTG | 0.996 |
| CGGTGTTCCT | 0.988 |
| GTTATTCCTG | 1.04 |
| TCGCATTCTC | 4.28 |
| CTGCACTTAT | 1.07 |
| ATGTGTGATC | 1.03 |
| TCTAGCTCCG | 1.04 |
| AAACGGCATG | 1.04 |
| CAACACATAT | 1.02 |
| TGGCTCAATT | 0.966 |
| CAAGGATACG | 1.02 |
| AAACTTGCGT | 1.01 |
| GCGACGTCGA | 0.991 |
| ACAGTGCTGG | 0.992 |
| TTACCGAAGT | 1.36 |
| CAGTATCTTA | 1.01 |
| TTGGTCTCTG | 0.958 |
| AGTAATGTTC | 1.04 |
| TGGTTTACGC | 0.944 |

| Sequence | switch fluorescence ratio |
| --- | --- |
| CTGAATACGA | 1.42 |
| GCGCTATGTA | 1.01 |
| TGCATGCACA | 0.991 |
| TAGGACTGTT | 0.997 |
| TAAGAGAATA | 0.984 |
| CTTATGGCCA | 0.972 |
| TATATGCGGC | 0.922 |
| TAAGTGGCGG | 0.985 |
| TCACGTAGCT | 1.29 |
| TCAAGTATTT | 1 |
| GGTATTAGCA | 1 |
| ACTAATGCTA | 1.02 |
| ACAGTGACAA | 1.07 |
| AGTAAAACAT | 0.989 |
| CGGGTTAGCG | 0.974 |
| AATGAGTTAG | 1 |
| GGTCCACTCT | 0.982 |
| CGACCTACAC | 1.74 |
| ATGAGGAGGC | 1.02 |
| GCTTAACCG | 1.02 |
| CATTACATCC | 1.07 |
| CTGTCACGAG | 1.05 |

| Sequence | switch fluorescence ratio |
| --- | --- |
| GCAGAAAAGT | 1.01 |
| GCTACGTTAG | 1.05 |
| TTTCTCAAAG | 1.03 |
| GCGGTGATGT | 0.994 |
| TTTTAGTCGC | 1.09 |
| CTTAGAATTT | 1 |
| TGAGTCGGGG | 0.994 |
| TTGGTCACCG | 1.02 |
| GACACAGACC | 1.21 |
| TAATCCTATC | 1.03 |
| GCACGCCTTG | 1.15 |
| GGACTTCACT | 1.15 |
| CATATGTGAG | 0.991 |
| ATGTAAACTT | 0.987 |
| TGGACGGTTT | 0.939 |
| GTTGGAAGTT | 0.925 |
| CGGCAGGAAC | 1.07 |
| GCTATACATG | 0.951 |
| AAGAGTGGAT | 1.02 |
